Data: PubChem BioAssay AID488969 (Vanderbilt High Throughput Screening Facility, 2010)
Whole data set: some 110,000 compounds, median “z-score” near -0.1, cut for the highest 2% near 2. The list shows a part of the results.

biological target: Metabotropic glutamate receptor 8 (Rattus norvegicus) (UniProt P70579); experiment: rat mGluR8 modulators via GIRK flux, primary screen, cell-based, thallium flux, HTS (AID 488969); details: HEK293 rat mGluR8, GIRK (G protein-gated inwardly rectifying potassium channel) thallium flux, FluoZin2; at 10 µM; stronger effect = higher value; submaximal glutamate (EC20) added with thallium
Chain of UniProt P70579 (P70579 whole entry, looked up): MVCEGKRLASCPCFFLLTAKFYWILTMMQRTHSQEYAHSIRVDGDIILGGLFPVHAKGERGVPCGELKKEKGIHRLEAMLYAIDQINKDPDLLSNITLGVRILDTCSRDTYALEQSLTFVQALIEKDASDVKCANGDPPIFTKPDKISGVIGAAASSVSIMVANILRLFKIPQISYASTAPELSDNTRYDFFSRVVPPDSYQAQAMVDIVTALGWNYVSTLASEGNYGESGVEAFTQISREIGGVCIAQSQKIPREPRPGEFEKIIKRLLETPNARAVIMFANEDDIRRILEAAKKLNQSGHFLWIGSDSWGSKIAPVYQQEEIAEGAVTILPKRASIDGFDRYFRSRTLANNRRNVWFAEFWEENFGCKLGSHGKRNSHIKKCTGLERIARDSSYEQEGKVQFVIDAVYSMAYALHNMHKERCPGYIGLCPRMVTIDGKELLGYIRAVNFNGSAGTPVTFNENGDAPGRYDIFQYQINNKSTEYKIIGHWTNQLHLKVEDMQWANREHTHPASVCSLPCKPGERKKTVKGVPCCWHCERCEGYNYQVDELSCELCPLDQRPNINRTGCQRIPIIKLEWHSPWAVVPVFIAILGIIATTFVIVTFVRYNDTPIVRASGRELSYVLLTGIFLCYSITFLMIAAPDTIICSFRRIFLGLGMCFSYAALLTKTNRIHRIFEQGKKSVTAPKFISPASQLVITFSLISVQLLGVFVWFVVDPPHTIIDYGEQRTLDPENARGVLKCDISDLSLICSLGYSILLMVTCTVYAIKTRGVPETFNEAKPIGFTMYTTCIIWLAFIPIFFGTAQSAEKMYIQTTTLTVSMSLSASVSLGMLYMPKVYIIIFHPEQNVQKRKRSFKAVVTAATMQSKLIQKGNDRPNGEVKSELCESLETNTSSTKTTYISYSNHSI

| SMILES | z-score |
| --- | --- |
| COc1ccc(C(CNC(=O)c2ccccc2C)N2CCCC2)cc1 (stereo not drawn) | -0.0862 |
| c1ccc(Cc2nn3c(-c4ccncc4)nnc3s2)cc1 | -0.842 |
| CCn1c(CSc2nc(C)cc(C)n2)nnc1SCC(=O)Nc1ccccc1 | 0.393 |
| CNC(=O)c1nnc(Cc2ccc(F)cc2)o1 | -0.0918 |
| S=C(c1ccc(N2CCOCC2)cc1)N1CCCCC1 | 0.18 |
| CC(NC(=O)Cc1ccc(F)cc1)c1ccccc1 (stereo not drawn) | -0.383 |
| COC(=O)c1ccccc1NC(=O)C1CCN(S(=O)(=O)c2cc(C)ccc2OC)CC1 | -0.877 |
| OCCCn1c(-c2ccccc2)n[nH]c1=S | -0.326 |
| O=C(Nc1ccc2c(c1)OCCO2)C1CCN(C(=O)c2ccccc2)CC1 | 0.0783 |
| Cc1cc(NC(=O)COC(=O)c2oc3c(Cl)cccc3c2C)no1 | -0.306 |
| O=C(O)c1ccccc1SC1CC(=O)N(c2ccccc2)C1=O (stereo not drawn) | -0.154 |
| O=C(Nc1ccccc1C(=O)O)c1ccc(Br)o1 | -0.102 |
| CC(C)c1nc2n[nH]c(N)c2c2c1CCC2 | 0.126 |
| Cc1cccc(C)c1NC(=O)CSc1nnc(NC(=O)CN2CCOCC2)s1 | -0.13 |
| COC(=O)c1ccc(Nc2nc(C)cc(=O)[nH]2)cc1 | -0.0943 |
| COc1ccccc1NS(=O)(=O)c1ccc(C)c(NC(=O)NC2CCCCC2)c1 | 0.0776 |
| C=C(Cl)COC(=O)C1C2C=CC(C2)C1C(=O)O (stereo not drawn) | 0.125 |
| CCC12CN3CC(CC)(CN(C1)C3c1ccc(OC(C)C)cc1)C2=O (stereo not drawn) | -0.029 |
| O=C(Cc1ncc(C(F)(F)F)cc1Cl)Nc1cccc(Br)c1 | -0.143 |
| COc1cc(CCC(=O)OCn2nnc3ccccc3c2=O)cc(OC)c1OC | 0.016 |
| CCCC1N2CC3([N+](=O)[O-])CN1CC([N+](=O)[O-])(C2)C3(C)C (stereo not drawn) | -0.122 |
| Clc1ccc(Cl)c(-c2nn3c(Cn4cnc5ccccc54)nnc3s2)c1 | -0.365 |
| c1ccc(CSc2ccc(-c3ccco3)nn2)cc1 | 0.0753 |
| OCCN1CCN(CC(O)COc2ccc3ccccc3c2)CC1 (stereo not drawn) | -0.0463 |
| O=C(O)/C=C/c1cn(Cc2ccccc2)nc1-c1ccccc1 | 0.117 |

| SMILES | z-score |
| --- | --- |
| CCOc1ccccc1C(=O)NC1CC2CCCC(C1)N2C1CC1 (stereo not drawn) | -0.732 |
| COC(=O)C(NC(=O)Nc1ccccc1OC)C(C)C (stereo not drawn) | 0.329 |
| O=S(=O)(N/N=C1\CC(c2ccccc2)Oc2ccccc21)c1ccccc1 (stereo not drawn) | -0.135 |
| O=C(c1ccc(Oc2ccccc2)cc1)c1nc2c(n1O)CCCC2 | -1.84 |
| CCN(CC)CCNC1=CC(=O)OC12CCCCC2 | 0.653 |
| O=C(OCC1OC(n2cnc3c(N(C(=O)c4ccccc4)C(=O)c4ccccc4)ncnc32)C(O)C1F)c1ccccc1 (stereo not drawn) | 0.0152 |
| N/C(=N\OC(=O)c1ccc(Br)cc1)c1ccccc1 | -0.37 |
| C/C(=N\NC(=O)COc1ccc(C)cc1C(C)C)c1ccc(-n2ccnc2)cc1 | 2.53 |
| Cc1nnc(SCC(=O)NCCOc2ccc(Cl)cc2)n1-c1ccccc1 | -0.847 |
| Cc1cc(C)nc(-n2nc(C)cc2NC(=O)c2ccc(Br)o2)n1 | -0.705 |
| CCN(CC(=O)Nc1ccc2c(c1)OC(F)(F)O2)Cc1nc2ccccc2c(=O)[nH]1 | -0.0909 |
| C=CCn1c(NCc2ccc(N(C)C)cc2)nc2ccccc21 | 0.0461 |
| CC(/C=C/c1ccccc1)=N\NC(=O)CNC(=O)c1ccccc1Cl | -0.377 |
| CCOC(=O)c1ccc(Oc2nc(N(C)C)nc(N(C)C)n2)cc1 | 0.229 |
| CCOC(=O)/C(O)=C/c1ncc(C(F)(F)F)cc1Cl | -0.187 |
| COC(=O)c1sc(NC(=O)CSc2nnnn2-c2ccc(C)cc2C)nc1C | -0.131 |
| CCCCCn1c(Sc2ncccn2)nc2c1c(=O)[nH]c(=O)n2C | 0.38 |
| COc1ccc(N2CCN(C(c3ccccc3OC)c3nnnn3Cc3ccco3)CC2)cc1 (stereo not drawn) | -1.36 |
| COc1cc(OC)c2c(C)cc(=O)oc2c1 | -0.0168 |
| CC1CC(C)CN(c2oc(-c3ccco3)nc2C#N)C1 (stereo not drawn) | -0.954 |
| CC1=C(C(=O)OCc2ccccc2)C(/C=C/c2ccccc2)N2C(=O)CCSC2=N1 (stereo not drawn) | -0.252 |
| COc1ccc(CC(=O)NN2C(=O)c3ccccc3C2=O)cc1 | -0.0806 |
| Cc1ccc(C(=O)NCCc2csc(C)n2)cc1 | -0.0897 |
| CCOC(=O)c1cnc(SC)nc1Oc1cccc(NS(=O)(=O)c2ccc(F)cc2)c1 | -0.952 |
| COc1ccc2[nH]c(C)cc(=O)c2c1 | 0.623 |

| SMILES | z-score |
| --- | --- |
| Cc1nc(=O)c(-c2ccccc2)c(C)n1CCO | -0.0934 |
| CCSc1nnc(NC(=O)c2cc(C)on2)s1 | 0.752 |
| COc1cccc(/C=c2/s/c(=C(\C#N)C(=O)N3CCOCC3)n(-c3ccccc3)c2=O)c1 | 0.155 |
| O=C(Nc1cccnc1)Nc1ccccc1Cl | 0.0762 |
| CC(C)N(Cc1nc(-c2ccc(Cl)cc2)no1)C(=O)CCCN1C(=O)c2ccccc2C1=O | -0.223 |
| COC(=O)c1ccc(Cn2cnc3c(cnn3-c3ccc(F)cc3)c2=O)o1 | -0.635 |
| Cc1cccc(NC(=O)CSc2nc3nc(C)cc(C)c3c(=O)[nH]2)c1 | -0.475 |
| CCCCCCn1cc(C(=O)O)c(=O)c2ccccc21 | 0.132 |
| Cc1ccc(S(=O)(=O)N(C)CC(=O)N2CCc3ccccc32)cc1 | 0.202 |
| Cc1noc(C)c1C(=O)N1CCOCC1 | 0.0184 |
| Cc1ccc(NC(=O)CC2CS(=O)(=O)CC2CC(=O)Nc2ccc(C)c(C)c2)cc1C (stereo not drawn) | -0.017 |
| Cc1ccc(CNCC(O)(c2ccccc2)c2ccc(F)cc2)cc1 (stereo not drawn) | 0.253 |
| CC(=O)c1cccc(NC(=O)C2CCCN(S(=O)(=O)c3ccccc3)C2)c1 (stereo not drawn) | -0.67 |
| Cc1cc(SCC(=O)c2cc3ccccc3o2)nc2ccccc12 | 0.521 |
| Cc1ccc(Cl)cc1NC(=O)Cn1cccc1 | -0.44 |
| CCn1c(COc2c(C)cccc2C)nnc1SCC(=O)N1CCN(c2ccccc2)CC1 | -0.677 |
| O=C(NCc1ccccn1)c1ccc(/C=N/O)nc1 | 0.75 |
| Cc1ccc(-c2nc(N)sc2-c2ccccc2)cc1C | -0.155 |
| N#CC(Nc1ccccc1)c1ccccc1OCc1ccccc1 (stereo not drawn) | -0.529 |
| CCN(CC)CCOCCOc1ccccc1F | -1.06 |
| Cc1ccccc1N1CCN(CCCN2C(=O)CC(=C(c3ccccc3)c3ccccc3)C2=O)CC1 | -0.18 |
| COc1ccc(C2CC(C(F)(F)F)n3ncc(C(=O)Nc4c(C)n(C)n(-c5ccccc5)c4=O)c3N2)cc1 (stereo not drawn) | 0.575 |
| CCn1cc(C=C2C(=O)c3ccccc3C2=O)c2ccccc21 | -0.398 |
